# In PMC12820563:
# This is one part of the list. The list includes weakly bound sequences.
# Molecular target: T1, MBP-FoxP3dN (UniProt Q99JB6)
# T1 sequence: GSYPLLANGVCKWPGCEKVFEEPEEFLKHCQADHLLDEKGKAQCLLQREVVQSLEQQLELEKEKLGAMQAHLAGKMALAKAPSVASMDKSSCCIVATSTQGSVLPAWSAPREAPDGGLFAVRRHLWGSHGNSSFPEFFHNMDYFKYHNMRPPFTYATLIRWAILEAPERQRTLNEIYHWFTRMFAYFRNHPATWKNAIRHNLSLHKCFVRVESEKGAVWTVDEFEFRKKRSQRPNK
# Assay: PD-seq (MBP pull-down with sequencing)
# Settings: 20 mM Tris-HCl pH 7.5, 100 mM NaCl, 1.5 mM MgCl2, 0.4 uM protein, 0.1 uM dsDNA library, 30 min, room temperature, amylose pull-down; high values mean tight binding; double strand, one strand shown
row,Sequence,binding signal (RPM ratio (pull-down/input))
1,GATGATTGTTCTCCCAGCTGATGAATTGGTAACATCGAGTAAACAAATTTTCCTAATCTTTCTGTTCAAGCGCCATCTAC,0.838
2,GATGATTGTTCTCCCAGCTGATGAATTTTTCCACTCGAGTAAACAAATTTTCCTAATCTTTCTGTTCAAGCGCCATCTAC,0.267
3,GATGATTGTTCTCCCAGCTGATGAATTTCTACTCTCGAGTAAACAAATTTTCCTAATCTTTCTGTTCAAGCGCCATCTAC,0.251
4,GATGATTGTTCTCCCAGCTGATGAATTCCATCTTTCGAGTAAACAAATTTTCCTAATCTTTCTGTTCAAGCGCCATCTAC,0.437
5,GATGATTGTTCTCCCAGCTGATGAATTTTCAGATTCGAGTAAACAAATTTTCCTAATCTTTCTGTTCAAGCGCCATCTAC,0.215
6,GATGATTGTTCTCCCAGCTGATGAATTCGCCTTATCGAGTAAACAAATTTTCCTAATCTTTCTGTTCAAGCGCCATCTAC,0.916
7,GATGATTGTTCTCCCAGCTGATGAATTTCGTCGGTCGAGTAAACAAATTTTCCTAATCTTTCTGTTCAAGCGCCATCTAC,0.311
8,GATGATTGTTCTCCCAGCTGATGAATTCTAGACGTCGAGTAAACAAATTTTCCTAATCTTTCTGTTCAAGCGCCATCTAC,0.27
9,GATGATTGTTCTCCCAGCTGATGAATTTTAGTAATCGAGTAAACAAATTTTCCTAATCTTTCTGTTCAAGCGCCATCTAC,0.756
10,GATGATTGTTCTCCCAGCTGATGAATTAAGGCTCTCGAGTAAACAAATTTTCCTAATCTTTCTGTTCAAGCGCCATCTAC,0.551
11,GATGATTGTTCTCCCAGCTGATGAATTGATCCATTCGAGTAAACAAATTTTCCTAATCTTTCTGTTCAAGCGCCATCTAC,0.376
12,GATGATTGTTCTCCCAGCTGATGAATTCGTGGCATCGAGTAAACAAATTTTCCTAATCTTTCTGTTCAAGCGCCATCTAC,1.13
13,GATGATTGTTCTCCCAGCTGATGAATTACTAGGATCGAGTAAACAAATTTTCCTAATCTTTCTGTTCAAGCGCCATCTAC,0.302
14,GATGATTGTTCTCCCAGCTGATGAATTTACTATCTCGAGTAAACAAATTTTCCTAATCTTTCTGTTCAAGCGCCATCTAC,0.939
15,GATGATTGTTCTCCCAGCTGATGAATTTCCCGCGTCGAGTAAACAAATTTTCCTAATCTTTCTGTTCAAGCGCCATCTAC,0.413
16,GATGATTGTTCTCCCAGCTGATGAATTTGTGTTATCGAGTAAACAAATTTTCCTAATCTTTCTGTTCAAGCGCCATCTAC,5.3
17,GATGATTGTTCTCCCAGCTGATGAATTATGGTGGTCGAGTAAACAAATTTTCCTAATCTTTCTGTTCAAGCGCCATCTAC,0.588
18,GATGATTGTTCTCCCAGCTGATGAATTCTCACATTCGAGTAAACAAATTTTCCTAATCTTTCTGTTCAAGCGCCATCTAC,0.361
19,GATGATTGTTCTCCCAGCTGATGAATTGGCTGCTTCGAGTAAACAAATTTTCCTAATCTTTCTGTTCAAGCGCCATCTAC,0.464
20,GATGATTGTTCTCCCAGCTGATGAATTGCTTCCGTCGAGTAAACAAATTTTCCTAATCTTTCTGTTCAAGCGCCATCTAC,0.425
21,GATGATTGTTCTCCCAGCTGATGAATTCCTCCCTTCGAGTAAACAAATTTTCCTAATCTTTCTGTTCAAGCGCCATCTAC,0.203

row,Sequence,binding signal (RPM ratio (pull-down/input))
1,GATGATTGTTCTCCCAGCTGATGAATTGTAGGATTCGAGTAAACAAATTTTCCTAATCTTTCTGTTCAAGCGCCATCTAC,0.436
2,GATGATTGTTCTCCCAGCTGATGAATTGTGTCGATCGAGTAAACAAATTTTCCTAATCTTTCTGTTCAAGCGCCATCTAC,0.976
3,GATGATTGTTCTCCCAGCTGATGAATTTATAGCCTCGAGTAAACAAATTTTCCTAATCTTTCTGTTCAAGCGCCATCTAC,1.19
4,GATGATTGTTCTCCCAGCTGATGAATTGTACATCTCGAGTAAACAAATTTTCCTAATCTTTCTGTTCAAGCGCCATCTAC,0.829
5,GATGATTGTTCTCCCAGCTGATGAATTTTACGCCTCGAGTAAACAAATTTTCCTAATCTTTCTGTTCAAGCGCCATCTAC,0.506
6,GATGATTGTTCTCCCAGCTGATGAATTAGCTTTTTCGAGTAAACAAATTTTCCTAATCTTTCTGTTCAAGCGCCATCTAC,2.22
7,GATGATTGTTCTCCCAGCTGATGAATTCATAGACTCGAGTAAACAAATTTTCCTAATCTTTCTGTTCAAGCGCCATCTAC,0.317
8,GATGATTGTTCTCCCAGCTGATGAATTTCAGCACTCGAGTAAACAAATTTTCCTAATCTTTCTGTTCAAGCGCCATCTAC,0.453
9,GATGATTGTTCTCCCAGCTGATGAATTCTACTTCTCGAGTAAACAAATTTTCCTAATCTTTCTGTTCAAGCGCCATCTAC,0.349
10,GATGATTGTTCTCCCAGCTGATGAATTCTACTCTTCGAGTAAACAAATTTTCCTAATCTTTCTGTTCAAGCGCCATCTAC,0.307
11,GATGATTGTTCTCCCAGCTGATGAATTAACGGCTTCGAGTAAACAAATTTTCCTAATCTTTCTGTTCAAGCGCCATCTAC,0.288
12,GATGATTGTTCTCCCAGCTGATGAATTACCTGATTCGAGTAAACAAATTTTCCTAATCTTTCTGTTCAAGCGCCATCTAC,0.32
13,GATGATTGTTCTCCCAGCTGATGAATTAGATCTCTCGAGTAAACAAATTTTCCTAATCTTTCTGTTCAAGCGCCATCTAC,0.358
14,GATGATTGTTCTCCCAGCTGATGAATTCGGTATGTCGAGTAAACAAATTTTCCTAATCTTTCTGTTCAAGCGCCATCTAC,2.16
15,GATGATTGTTCTCCCAGCTGATGAATTCCTTAGCTCGAGTAAACAAATTTTCCTAATCTTTCTGTTCAAGCGCCATCTAC,0.222
16,GATGATTGTTCTCCCAGCTGATGAATTTATCGATTCGAGTAAACAAATTTTCCTAATCTTTCTGTTCAAGCGCCATCTAC,0.535
17,GATGATTGTTCTCCCAGCTGATGAATTGCTCGAATCGAGTAAACAAATTTTCCTAATCTTTCTGTTCAAGCGCCATCTAC,0.386
18,GATGATTGTTCTCCCAGCTGATGAATTGCCAGTCTCGAGTAAACAAATTTTCCTAATCTTTCTGTTCAAGCGCCATCTAC,0.608
19,GATGATTGTTCTCCCAGCTGATGAATTACTTGACTCGAGTAAACAAATTTTCCTAATCTTTCTGTTCAAGCGCCATCTAC,0.377
20,GATGATTGTTCTCCCAGCTGATGAATTTTCAAGGTCGAGTAAACAAATTTTCCTAATCTTTCTGTTCAAGCGCCATCTAC,0.168
21,GATGATTGTTCTCCCAGCTGATGAATTTGGGCTCTCGAGTAAACAAATTTTCCTAATCTTTCTGTTCAAGCGCCATCTAC,0.538

row,Sequence,binding signal (RPM ratio (pull-down/input))
1,GATGATTGTTCTCCCAGCTGATGAATTGGTTTTGTCGAGTAAACAAATTTTCCTAATCTTTCTGTTCAAGCGCCATCTAC,2.91
2,GATGATTGTTCTCCCAGCTGATGAATTCCTATAGTCGAGTAAACAAATTTTCCTAATCTTTCTGTTCAAGCGCCATCTAC,0.316
3,GATGATTGTTCTCCCAGCTGATGAATTTCAGATCTCGAGTAAACAAATTTTCCTAATCTTTCTGTTCAAGCGCCATCTAC,0.248
4,GATGATTGTTCTCCCAGCTGATGAATTAAAAGGCTCGAGTAAACAAATTTTCCTAATCTTTCTGTTCAAGCGCCATCTAC,0.309
5,GATGATTGTTCTCCCAGCTGATGAATTATTGTGGTCGAGTAAACAAATTTTCCTAATCTTTCTGTTCAAGCGCCATCTAC,1.45
6,GATGATTGTTCTCCCAGCTGATGAATTTACAGCTTCGAGTAAACAAATTTTCCTAATCTTTCTGTTCAAGCGCCATCTAC,0.558
7,GATGATTGTTCTCCCAGCTGATGAATTTCTCCTTTCGAGTAAACAAATTTTCCTAATCTTTCTGTTCAAGCGCCATCTAC,0.245
8,GATGATTGTTCTCCCAGCTGATGAATTGTGTTTTTCGAGTAAACAAATTTTCCTAATCTTTCTGTTCAAGCGCCATCTAC,6.66
9,GATGATTGTTCTCCCAGCTGATGAATTGCTATGTTCGAGTAAACAAATTTTCCTAATCTTTCTGTTCAAGCGCCATCTAC,1.18
10,GATGATTGTTCTCCCAGCTGATGAATTTTCTTTATCGAGTAAACAAATTTTCCTAATCTTTCTGTTCAAGCGCCATCTAC,1.27
11,GATGATTGTTCTCCCAGCTGATGAATTATGCAATTCGAGTAAACAAATTTTCCTAATCTTTCTGTTCAAGCGCCATCTAC,5.58
12,GATGATTGTTCTCCCAGCTGATGAATTCAAGATCTCGAGTAAACAAATTTTCCTAATCTTTCTGTTCAAGCGCCATCTAC,0.23
13,GATGATTGTTCTCCCAGCTGATGAATTATAGCGGTCGAGTAAACAAATTTTCCTAATCTTTCTGTTCAAGCGCCATCTAC,0.434
14,GATGATTGTTCTCCCAGCTGATGAATTAGGCAGCTCGAGTAAACAAATTTTCCTAATCTTTCTGTTCAAGCGCCATCTAC,1.13
15,GATGATTGTTCTCCCAGCTGATGAATTGTTTCTCTCGAGTAAACAAATTTTCCTAATCTTTCTGTTCAAGCGCCATCTAC,1.47
16,GATGATTGTTCTCCCAGCTGATGAATTCTTTGATTCGAGTAAACAAATTTTCCTAATCTTTCTGTTCAAGCGCCATCTAC,0.276
17,GATGATTGTTCTCCCAGCTGATGAATTCACGGTCTCGAGTAAACAAATTTTCCTAATCTTTCTGTTCAAGCGCCATCTAC,0.394
18,GATGATTGTTCTCCCAGCTGATGAATTAATATGTTCGAGTAAACAAATTTTCCTAATCTTTCTGTTCAAGCGCCATCTAC,1.2
19,GATGATTGTTCTCCCAGCTGATGAATTCGTGAGGTCGAGTAAACAAATTTTCCTAATCTTTCTGTTCAAGCGCCATCTAC,0.398
20,GATGATTGTTCTCCCAGCTGATGAATTCAGTCGGTCGAGTAAACAAATTTTCCTAATCTTTCTGTTCAAGCGCCATCTAC,0.268
21,GATGATTGTTCTCCCAGCTGATGAATTTGCTGTGTCGAGTAAACAAATTTTCCTAATCTTTCTGTTCAAGCGCCATCTAC,6.29
